Data taken from PubChem BioAssay AID1963576 (National Center for Advancing Translational Sciences (NCATS), 2024).
The campaign covered roughly 46,000 compounds. About 60 (0.1%) were called active. Another 3% or so got no clear call; they are omitted. Calls come from the whole dose curve; as a rule, active = well fitted inhibition curve with a large enough effect; inconclusive = small, poorly fitted or top-dose-only effect; inactive = no such curve, though single readings can be large or run the other way. This is one part of the list.

Test: Primary qHTS assay for Inhibitors of ovarian cancer metastasis using an organotypic tumor microenvironment (TME) model.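 For activity change, negative = inhibition: plate controls were DMSO wells for no effect and tomatine positive control wells for full effect.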 Note: nearly all actives have a fitted effect of over 65% in size.
Details: SKOV3ip1-GFP adhesion/invasion on 3D omental model, fluorescence; series mostly up to 45.8 µM; activity change, negative = inhibition: at the top concentration
In short: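 A 3D layer of primary human omental fibroblasts, mesothelial cells, fibronectin and collagen I, grown 48 hr, received SKOV3ip1-GFP cells in serum-free medium plus compounds at 0.36-46 umol/L. After 2 hr RT and 16 hr 37 C, fixed adherent GFP cells were counted; normalized to DMSO and tomatine.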

Activity change, negative = inhibition, inactive:
CC(=O)N1CCCC1c1nc2ccccc2n1Cc1ccccc1 (configuration not stated) 2.87%
CCOc1ccc(C(=O)c2oc3ccccc3c2NC(=O)Cc2coc3cc(C)cc(C)c23)cc1 1.34%
CCc1ccc(Cn2c(CNS(=O)(=O)c3ccc(F)c(Cl)c3)nc3cccnc32)cc1 -1.02%
CC1=C(C(=O)OCC2CCCCC2)C(c2cccc(Cl)c2Cl)CC(=O)N1 (configuration not stated) 50.5%
Cc1ccc(C2CC(=O)Nc3cc4c(cc32)OCCO4)cc1 (configuration not stated) -5.65%
CCOC(=O)c1ccc(NC(=O)c2c(N3CCCC3=O)c3cc(OC)ccc3n2C)cc1 29.5%
CCc1ccc(-n2c(=O)c3c4c(sc3n(Cc3ccc(C)cc3)c2=O)CCC4)cc1 -8.92%
Cc1ccc(CNCc2ccccc2)s1 -3.53%
COc1ccc(CCNc2nccn(-c3ccc(C)c(C)c3)c2=O)cc1OC 5.41%
Cc1cc(C)cc(N2CC(c3nc(-c4cccc(Cl)c4)no3)CC2=O)c1 (configuration not stated) 2.63%
O=C(Cn1ncc2c([nH]c3ccccc32)c1=O)Nc1cccc(C(F)(F)F)c1 -1.44%
CC(=O)N1CCc2cc(S(=O)(=O)NC(Cc3ccccc3)C(=O)Nc3cccc(C)c3)ccc21 (configuration not stated) 5.96%
Cc1ccccc1CN1c2ccccc2S(=O)(=O)c2ccccc21 1.97%
O=C1C(Nc2ccccc2)=CC(c2ccc(Br)cc2)N1c1ccccc1 (configuration not stated) -13.7%
Cc1ccc(CCNC(=O)NCc2noc3ccccc23)cc1 1.43%
Cc1ccc(CN2CCC(CNC(=O)Nc3cccc(Cl)c3C)C2)cc1 (configuration not stated) 8.2%
O=C(NCc1ccccc1)c1ccc2nc(CCc3ccccc3)oc2c1 -9.21%
COc1ccc(C)cc1NC(=O)NCc1cccn1Cc1ccccc1 -15.4%
COc1ccc(N2CCN(C(CNC(=O)C(=O)NCCc3ccccc3)c3cccnc3)CC2)cc1 (configuration not stated) 0.266%
COc1cc(OC)cc(-c2nc(-c3cccc(C)c3)no2)c1 8.84%
O=C1CN2Cc3c(ccc(Cl)c3Cl)N=C2N1 1.09%
O=C(COc1ccc(Cl)cc1)Nc1nnc2n1CCS2 -19.8%
Cc1c(CNC2CCCCCC2)c(C(=O)O)c(C)n1Cc1ccc(F)cc1Cl 6.31%
CCOCCCN(C(=O)Nc1ccc(Cl)cc1)C1CCN(C(C)=O)CC1 -16.7%
CC1CCCN(S(=O)(=O)c2ccc3[nH]c(=O)cc(C(=O)NCCc4ccc(Cl)cc4)c3c2)C1 (configuration not stated) 4.37%
COc1ccc(C)cc1NC(=O)CSc1nc2ccccc2nc1N1CCOCC1 1.88%
COc1cc(NC(=O)c2sc3nc4n(c(=O)c3c2C)CCCCC4)cc(OC)c1OC 2.9%
Cc1noc(C)c1S(=O)(=O)N1CCC(C(=O)Nc2ccc(Br)cc2)CC1 1.71%
CC(C)(C)c1ccc(C(=O)Nc2cc(-c3nc4ccccc4o3)ccc2Cl)cc1 6.21%
Cc1ccc(C)c(NC(=O)CSc2nc(-c3ccccc3)cc(=O)[nH]2)c1 1.42%
CCN(C(=O)c1cc2cc3ccc(OC)cc3nc2o1)c1cccc(C)c1 11.6%
COc1ccc(N2CCN(S(=O)(=O)c3c(C)[nH]c(=O)[nH]c3=O)CC2)cc1 1.3%
COc1ccc(CCNC(=O)C(=O)Nc2ccc(C)cc2)cc1OC -12.4%
CC(=O)c1ccc(Oc2nc(C)nc3c2oc2ccccc23)cc1 0.408%
COc1ccc(-c2nc(C(=O)Nc3ccc(C(C)=O)cc3)nn2-c2cccc(Cl)c2)cc1 -7.44%
COc1ccc(S(=O)(=O)N(CC(=O)Nc2cccc(C(F)(F)F)c2)c2ccc(C)cc2)cc1 32.9%
Cn1c(=O)n(C/C=C/c2ccccc2)c(=O)c2c1nc1n2CCN1c1ccccc1 23.9%
CCCCOc1ccc(CNC(=O)C2COc3ccc(OC)cc3C2)cc1 (configuration not stated) -5.16%
CN(C)Cc1c(C(=O)NCCOc2ccc(C(=O)NO)cc2)oc2ccccc12 -11.3%
COc1ccc(OC)c(-c2csc(-c3c(N)c(C(=O)c4ccccc4)n4ccccc34)n2)c1 -0.622%
COc1ccc(CN(Cc2ccco2)c2cnc(S(C)(=O)=O)nc2C(=O)Nc2ccc(F)cc2)cc1 -0.492%
CC(C)NCC(O)COc1ccc(COCCOC(C)C)cc1 (configuration not stated) -4.51%
Cc1ccc(NC(=O)CN2C(=O)COc3ccc(S(=O)(=O)N4CCCCC4)cc32)cc1N(C)C 21.5%
COC(=O)c1cccnc1-n1c(=O)c2cccnc2n(CC(=O)Nc2c(C)cc(C)cc2C)c1=O -1.88%
O=C(Cn1ncn2nc(-c3cccs3)cc2c1=O)NCc1cccc(Br)c1 -6.4%
CCOc1ccc(S(=O)(=O)N(CC(=O)Nc2ccc3c(c2)OCO3)c2ccccc2)cc1 13.1%
CC(C)CN(CCNC(=O)CN1C(=O)CSc2ccc(S(=O)(=O)N3CCOCC3)cc21)CC(C)C 13%
CC1(C)CC(=O)c2c(C(F)(F)F)nn(-c3ccc(C(N)=O)c(NC4CCC(OC(=O)CN)CC4)c3)c2C1 (configuration not stated) 17.5%

outcome, inactive:
Cc1c(Cl)cccc1NC(=O)CN1C(=O)COc2ccc(S(=O)(=O)N3CCOCC3)cc21
Cc1ccc(C)c(N2CCN(C(=O)Cn3ncc4ccsc4c3=O)CC2)c1
Cc1cc2oc(C(=O)N(Cc3ccccc3F)C3CCS(=O)(=O)C3)c(C)c2cc1Cl (configuration not stated)
Oc1c(C(c2ccc(F)cc2)N2CCOCC2)sc2nc(-c3ccco3)nn12 (configuration not stated)
COc1ccccc1NC(=O)CN(C)S(=O)(=O)c1ccc2c(c1)c(=O)n(C)c(=O)n2C
O=C1CCSc2ccc(S(=O)(=O)Nc3ccc(Cl)c(C(F)(F)F)c3)cc2N1
CC(C)c1ccc(NC(=O)c2ccc(F)c(S(=O)(=O)N3CCCCCC3)c2)cc1
COc1ccc(CNC(=O)c2nc(Cn3nc(C)c(Br)c3C)no2)cc1OC
COc1ccc(Cc2nc3ccc(C(=O)NCc4ccc(OC)cc4OC)cc3o2)cc1
CCc1ccccc1NC(=O)C1CCN(S(=O)(=O)c2ccc3[nH]c(=O)ccc3c2)CC1
CCCCn1c(=O)c2oc3ccccc3c2n(CC(=O)Nc2cccc(Cl)c2C)c1=O
CCOc1ccc(C(=O)c2cn(CC(=O)Nc3ccc4c(c3)OCO4)c3ccc(OCC)cc3c2=O)cc1
COc1ccc(-n2c(=O)c3c(c4cc(OC)ccc4n3C)n(Cc3cc(C)ccc3C)c2=O)cc1
Cc1ccc(NC(=O)Cn2c(=O)n(-c3ccccc3)c(=O)c3ccc(C(=O)NCc4ccc5c(c4)OCO5)cc32)c(C)c1
